Measurements taken from article PMC4336329 (PLoS ONE, 2015).
Screen size: about 310,000 compounds; about 2,200 (0.71%) showed an effect of 50% or more. Effects have a minus sign here. This is one part of the list.

Target: human ether-à-go-go-related gene (hERG) potassium channel (human, UniProt Q12809)
Experiment: primary screen, population patch clamp on CHO cells stably expressing hERG

human ether-à-go-go-related gene (hERG) potassium channel, sequence (Q12809 whole entry, looked up): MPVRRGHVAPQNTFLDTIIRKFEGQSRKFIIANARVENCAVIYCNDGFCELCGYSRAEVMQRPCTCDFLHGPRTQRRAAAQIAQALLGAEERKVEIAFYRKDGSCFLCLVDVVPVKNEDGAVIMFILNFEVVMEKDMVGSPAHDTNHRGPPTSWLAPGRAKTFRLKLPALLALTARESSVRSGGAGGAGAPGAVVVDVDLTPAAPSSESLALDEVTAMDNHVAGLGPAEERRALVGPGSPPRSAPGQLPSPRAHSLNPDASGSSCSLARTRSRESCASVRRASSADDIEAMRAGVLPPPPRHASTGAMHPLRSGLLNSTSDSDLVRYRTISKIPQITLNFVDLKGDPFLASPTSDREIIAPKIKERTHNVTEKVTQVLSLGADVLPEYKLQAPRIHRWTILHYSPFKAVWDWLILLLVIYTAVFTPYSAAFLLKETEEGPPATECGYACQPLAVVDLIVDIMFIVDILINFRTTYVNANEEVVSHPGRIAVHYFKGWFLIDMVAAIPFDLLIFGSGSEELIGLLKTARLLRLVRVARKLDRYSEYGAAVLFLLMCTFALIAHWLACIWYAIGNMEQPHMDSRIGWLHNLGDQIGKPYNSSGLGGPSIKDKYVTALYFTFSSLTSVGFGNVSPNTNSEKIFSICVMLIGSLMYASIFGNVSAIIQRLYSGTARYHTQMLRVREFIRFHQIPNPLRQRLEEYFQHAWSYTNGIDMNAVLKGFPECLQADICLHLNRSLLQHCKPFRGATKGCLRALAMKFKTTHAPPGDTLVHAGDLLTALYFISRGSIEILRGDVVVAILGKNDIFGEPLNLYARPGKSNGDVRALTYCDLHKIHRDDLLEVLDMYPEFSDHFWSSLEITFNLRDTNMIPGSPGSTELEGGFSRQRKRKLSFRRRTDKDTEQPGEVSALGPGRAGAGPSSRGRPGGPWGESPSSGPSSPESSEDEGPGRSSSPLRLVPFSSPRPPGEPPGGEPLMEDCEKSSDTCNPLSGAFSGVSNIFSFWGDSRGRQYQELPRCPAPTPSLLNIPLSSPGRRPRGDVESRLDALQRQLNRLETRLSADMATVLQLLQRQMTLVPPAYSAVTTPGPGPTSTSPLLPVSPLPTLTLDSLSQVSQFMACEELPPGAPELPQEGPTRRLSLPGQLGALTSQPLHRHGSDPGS

Structure (SMILES) | hERG current change (%, negative = inhibition) at 1uM [%]
CCCc1cc(=O)[nH]c(SCC(=O)Nc2cc(S(=O)(=O)N3CCCCC3)ccc2C)n1 | 2.12
COCCNC(=S)Nc1ccc([N+](=O)[O-])cc1C | 18.1
CCOC(=O)C1(Cc2ccccc2C)CCCN(C(=O)c2ccc(COC)o2)C1 (centres unmarked) | 2.13
COc1ccc(CNc2nc3ccc(C)cc3s2)c(OC)c1OC | 9.14
O=C(COC(=O)c1cncc(Br)c1)NCc1ccccc1 | 11.4
CCCCC1NC(=S)N(C2CCCCC2)C1=O (centres unmarked) | 8.27
CCCC(=O)NC(=S)Nc1c(C)cc(Br)cc1C | -1.79
Cc1ccc(C(=O)NCC(=O)NCCCc2ccccc2)cc1 | 8.68
Cc1ccccc1C(=O)N1CCN(c2ccc([N+](=O)[O-])c(NCc3cccnc3)c2)CC1 | 0.055
CCOC(=O)c1c(NC(=O)COC(=O)CCOc2ccccc2C)sc(C(=O)NC)c1C | 15.2
O=c1c2ccccc2nc(SCc2cccc(F)c2)n1C1CCCC1 | -19.6
COc1ccccc1N(C)S(=O)(=O)c1ccc(C(=O)NCC(C)C)cc1 | -3.31
Cl.c1coc(CN2CCN(C(c3cccs3)c3nnnn3C3CCCC3)CC2)c1 (centres unmarked) | 0.199
COC(=O)c1ccc(NC(=O)CSc2nc(=O)n3cccc(C)c3n2)cc1 | 5.91
COc1ccc(C2=C/C(=C\c3ccc(OC(C)=O)cc3)C(=O)O2)cc1 | 9.48
COc1ccc(N2CCN(C(=O)COCC(=O)O)CC2)cc1 | 13.4
CCNC(=O)CN1C(=O)NC2(CCCCCC2)C1=O | 15.8
COc1cc(C(=O)NCC(=O)N/N=C/c2ccco2)cc(OC)c1OC | 14.8
Cc1cccc(OCc2n[nH]c(=S)o2)c1 | 15.5
O=C(Nc1cccc(O)c1)c1cc(S(=O)(=O)N2CCCC2)ccc1Cl | 12.4
O=C(CN1C(=O)c2ccccc2C1=O)N1CCN(C(=O)c2ccco2)CC1 | -2.58
Cc1nc(-c2ccc(S(=O)(=O)Nc3cccc(S(N)(=O)=O)c3)s2)cs1 | 5.78
Cc1cccnc1NC(=O)C(c1ccccc1)c1ccccc1 | 13.3
COCCn1c(C)cc(C2=NNC(=Nc3ccc(OC)cc3)SC2)c1C | 13
O=C(O)C(C(=O)O)=C1C2CC3CC(C2)CC1C3 | 15.8
CCc1ccc(/C=N/NC(=O)c2cc(C3CC3)nc3ccc(Br)cc23)s1 | 12.3
